# Source: article PMC4336329 (PLoS ONE, 2015)
# In all, about 310,000 compounds went through this assay and about 2,200 (0.71%) showed an effect of 50% or more. Effects have a minus sign here. Some of the results follow.
# Molecular target: human ether-à-go-go-related gene (hERG) potassium channel (human, UniProt Q12809)
# Experiment: primary screen, population patch clamp on CHO cells stably expressing hERG
# Sequence of human ether-à-go-go-related gene (hERG) potassium channel (Q12809 whole entry, looked up): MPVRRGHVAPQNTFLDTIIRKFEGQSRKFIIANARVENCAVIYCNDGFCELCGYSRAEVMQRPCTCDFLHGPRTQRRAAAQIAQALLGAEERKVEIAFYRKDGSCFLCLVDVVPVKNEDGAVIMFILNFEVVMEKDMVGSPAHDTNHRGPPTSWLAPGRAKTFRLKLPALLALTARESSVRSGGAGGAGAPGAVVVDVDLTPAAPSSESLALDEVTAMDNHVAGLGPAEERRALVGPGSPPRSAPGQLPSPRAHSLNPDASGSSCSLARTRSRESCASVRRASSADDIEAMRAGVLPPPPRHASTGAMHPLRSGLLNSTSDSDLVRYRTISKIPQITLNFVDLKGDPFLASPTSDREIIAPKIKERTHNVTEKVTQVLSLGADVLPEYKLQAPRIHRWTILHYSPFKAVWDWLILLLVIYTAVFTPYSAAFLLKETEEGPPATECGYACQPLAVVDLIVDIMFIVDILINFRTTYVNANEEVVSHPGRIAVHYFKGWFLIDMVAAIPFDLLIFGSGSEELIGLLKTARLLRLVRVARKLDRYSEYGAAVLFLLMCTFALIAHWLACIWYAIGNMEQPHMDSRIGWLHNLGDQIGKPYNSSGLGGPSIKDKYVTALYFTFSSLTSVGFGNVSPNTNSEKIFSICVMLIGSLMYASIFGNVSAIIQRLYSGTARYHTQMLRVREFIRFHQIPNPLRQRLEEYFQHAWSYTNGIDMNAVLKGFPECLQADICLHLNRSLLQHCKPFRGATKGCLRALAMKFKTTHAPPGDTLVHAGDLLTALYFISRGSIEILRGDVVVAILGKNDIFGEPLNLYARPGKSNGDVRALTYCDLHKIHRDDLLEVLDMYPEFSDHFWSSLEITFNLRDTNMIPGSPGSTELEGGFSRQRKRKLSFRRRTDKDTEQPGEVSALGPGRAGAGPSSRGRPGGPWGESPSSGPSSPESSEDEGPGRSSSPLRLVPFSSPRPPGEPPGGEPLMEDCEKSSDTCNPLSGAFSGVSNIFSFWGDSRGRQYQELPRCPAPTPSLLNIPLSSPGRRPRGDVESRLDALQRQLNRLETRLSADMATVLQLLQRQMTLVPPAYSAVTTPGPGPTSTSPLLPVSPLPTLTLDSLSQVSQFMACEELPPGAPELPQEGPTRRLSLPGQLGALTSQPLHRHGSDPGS
row,SMILES,"hERG current change (%, negative = inhibition) at 1uM"
1,CCOC(=O)CCSc1nc(-c2ccc3c(c2)OCO3)cc(C(F)(F)F)c1C#N,7.49%
2,O=C(CN(C(=O)CNC(=O)c1ccco1)c1ccc(F)c(Cl)c1)NC1CCCCC1,13.6%
3,Cc1c(Cc2ccccc2)c(=O)oc2c(C)c(OCC(=O)NCC3CCC(C(=O)O)CC3)ccc12 (stereo not shown),16.8%
4,CCn1c(SCC(=O)N2CCCC2)nnc1-c1ccc(N)cc1,11.2%
5,COCCn1c(SCC(=O)Nc2ccc(Cl)cn2)nnc1-c1ccncc1,-13.8%
6,Cn1c(=O)cc(SCC(=O)NCC2COc3ccccc3O2)c2ccccc21 (stereo not shown),12%
7,S=c1nc(C2COc3ccccc3O2)[nH][nH]1 (stereo not shown),18.6%
8,Cc1c([N+](=O)[O-])cc(C(=O)Nc2ccc(NC(=O)c3ccco3)cc2)cc1[N+](=O)[O-],7.93%
9,CCCn1c(C(C)NC(=O)c2ccccc2)n[nH]c1=S (stereo not shown),14.7%
10,CCOC(=O)C(C)n1cnc2c(nnn2Cc2ccc(C)cc2)c1=O (stereo not shown),11.6%
11,O=C(O)c1cc(-c2ccc(Cl)cc2)n(-c2ccc(F)cc2)n1,6.76%
12,CCN(CC(=O)NCc1ccc(Cl)cc1)Cc1cc(=O)n2ccsc2n1,3.02%
13,Nc1nc(NCC(=O)O)nc(N2CCCCCC2)c1[N+](=O)[O-],10.3%
14,COc1ccc(C(=O)NCC(=O)N2CCCCC2)cc1OC,14.8%
15,Br.O=C(Cn1c(NCCCO)nc2ccccc21)c1ccc(Br)cc1,3.02%
16,CC(=O)Nc1ccc(NC(=O)C(NS(=O)(=O)c2cccc3nsnc23)C(C)C)cc1 (stereo not shown),20.4%
17,CCc1nonc1NC(=O)c1oc2ccc(F)cc2c1C,15.5%
18,COc1ccc(/C=C(\C#N)c2nc3ccc(C)cc3[nH]2)cc1Oc1ccc(C(F)(F)F)cc1[N+](=O)[O-],11.5%
19,Cc1cccc(C)c1NC(=O)/C(C#N)=C/c1ccc(-c2ccc(C(=O)O)cc2)o1,6.45%
20,CC1(C)CC(C(N)=S)CCO1 (stereo not shown),18.8%
21,COc1cccc(NC(=O)CN(C)C(=O)c2cc3c(s2)CCC3)c1,17.9%
22,C=CCOc1ccc(C(=O)n2cc(C(=O)OC)c3ccccc32)cc1,10.6%
23,CC1CC(=O)Nc2ccccc2N1C(=O)Cn1cnc2ccccc2c1=O (stereo not shown),2.26%

row,SMILES,"hERG current change (%, negative = inhibition) at 1uM"
1,CCCCCCCn1c(C)nnc1-c1cnn(C)c1N,6.07%
2,COc1cc(-c2nc3cccc(C)n3c2NCC2CCCO2)ccc1O (stereo not shown),-4.27%
3,COc1ccc(-c2c(N)n[nH]c2C)cc1OC,15.7%
4,CN(C)c1ccc(C2OC(=O)C(C)(C)C(=O)C2(C)C)cc1 (stereo not shown),14.8%
5,CCN(CC)C(=O)c1sc(NC(=O)c2ccc(C)c([N+](=O)[O-])c2)c(C#N)c1C,17.1%
6,COC(=O)c1ccc(CSc2ncnc3c2nnn3-c2ccc(F)cc2)o1,9.31%
7,CCn1ncc(/C=N\NC(=O)c2cc(-c3ccc(C)cc3C)nc3ccccc23)c1C,9.35%
8,COc1cc(NC(=O)Cc2ccc(OC)c(S(=O)(=O)N3CCOCC3)c2)c(OC)cc1Cl,5.86%
9,Cc1ccc(N2C(=O)C3C4CC(=O)C(c5ccccc54)C3C2=O)cc1C (stereo not shown),4.29%
10,COc1ccc(C(=O)NC2CCCCCC2)cc1OC1CCN(C(C)=O)CC1,7.33%
11,COc1ccc(/C=C/C(=O)CCC(=O)O)cc1,9.25%
12,Cc1cccc(C2N=C(N)Nc3nc4ccccc4n32)c1 (stereo not shown),-0.58%
13,Cc1nn(-c2ccccc2)c(C)c1S(=O)(=O)O,6.07%
14,CCCCONc1ncnc2nonc12,11.2%
15,CCN(CC)C(=O)Cc1cn(C)c2ccccc12,10.6%
16,COc1ncc(-c2ccc3c(c2)S(=O)(=O)c2cccc(C(=O)NCc4ccco4)c2C3=O)cn1,11.8%
17,NC(=O)c1cc(S(=O)(=O)NCCCc2ccco2)cs1,8.58%
18,CC(=O)NCCC(=O)NCc1ccc(F)cc1,-14.2%
19,COCCn1c(=NC(=O)CCS(=O)(=O)c2ccccc2)sc2cc(C)ccc21,7.44%
20,Cc1nc(=O)c(-c2ccccc2)c(C)n1-c1ccc(C(=O)O)cc1,14.7%
21,O=C(c1cc2cc(Br)ccc2oc1=O)N1CCCC1,7.59%
22,Cc1onc(C(=O)N2CCN(Cc3ccccc3)CC2)c1[N+](=O)[O-],-0.669%
23,O=C(NCCCN1CCOCC1)C1CCN(S(=O)(=O)c2c(Cl)cccc2Cl)CC1,10.4%

row,SMILES,"hERG current change (%, negative = inhibition) at 1uM"
1,O=C(CCc1ccccc1)Nc1cc(Cl)ccc1O,6.49%
2,Cn1c(O)c(N=Nc2ccc(S(=O)(=O)N3CCOCC3)cc2)c(=O)n(C)c1=O,19.9%
3,Cc1cccc(CC2CC(=O)N(c3ccccc3)C2=O)c1 (stereo not shown),4.5%
4,COc1ccc(NC(=O)CS(=O)CC(=O)Nc2ccc(F)cc2F)cc1 (stereo not shown),-2.61%
5,Cc1cc(-c2nc(C)c(-c3nnc(SCC(=O)Nc4cc(Cl)cc(Cl)c4)n3C)s2)no1,6.47%
6,O=C(Nc1ccc(S(=O)(=O)N2CCCC2)cc1)c1c(F)cccc1F,15.3%
7,CCOC(=O)c1c(CN2CCOCC2)n(C)c2cc(Br)c(O)c(CN(C)C)c12,-3.12%
8,Cc1cc(C(=O)NCc2ccco2)no1,8.74%
9,COC(=O)c1sc2nc(SCc3ccccc3C)n(N)c(=O)c2c1C,14.9%
10,O=S(=O)(c1cccc(-c2nnc(SC(F)F)n2-c2ccccc2)c1)N1CCCCC1,-1.08%
11,O=C(O)c1cnc2[nH]c3ccccc3n2c1=O,-5.36%
12,O=C(NC1CC1)c1cc2c(F)cccc2s1,-13.7%
13,CCOC(=O)c1ccc(NC(=O)c2ccccc2[N+](=O)[O-])cc1,6.64%
14,Fc1ccc(CN2CCN(C(c3ccccc3)c3ccccc3)CC2)cc1.O=C(O)C(=O)O,14.3%
15,CC(C)NC(=O)N1c2ccccc2Sc2ccccc21,12.7%
16,CCCN1CCC(NC(=O)CCc2nnc(Cc3cc(OC)ccc3OC)o2)CC1,11.5%
17,CN1CCc2c(sc(N)c2C(=O)O)C1,15.8%
18,CC(C)(C)NC(=O)C(c1ccncc1)N(Cc1ccc(F)cc1)C(=O)c1ccc(-c2ccccc2)[nH]1 (stereo not shown),14.7%
19,O=C(NCN1CCN(c2ccccc2F)CC1)c1cccnc1,1.69%
20,CC(C)OC(=O)CSc1nnc(CNc2nc(-c3ccccc3)cs2)n1C,-6.82%
21,Cc1ccc(/C=C2\C(=N)N3N=C(CC(=O)N4CCOCC4)SC3=NC2=O)o1,14.8%
22,Cc1sc2nc3c4ccccc4c(NCc4ccco4)nn3c(=O)c2c1C,-13.8%
23,OCCC1CN(Cc2cnc(-c3ccccc3)s2)CCN1C1CCCCC1 (stereo not shown),-4.58%

row,SMILES,"hERG current change (%, negative = inhibition) at 1uM"
1,O=C(NNC1=Nc2cccc3cccc1c23)c1ccccc1Br,9.23%
2,O=c1c2ccccc2[nH]c(=S)n1C1CCCCC1,19.6%
3,CC12CCC(=O)N1C(C(=O)Nc1nc(-c3ccc(F)c(F)c3)cs1)CS2 (stereo not shown),14.7%
4,N/C(Cc1cccs1)=N\OC(=O)COc1ccc(Cl)cc1Cl,-3.39%
5,O=C(Cn1nc(Cl)nc1Cl)c1ccccc1,8.44%
6,Cc1nc2sc3c(c2c(=O)n1NC(=O)CCBr)CCCC3,5.89%
7,O=S(=O)(NC1=NCCC1)c1cccs1,15.4%
8,CCCOc1ccc(C(=O)CCN2CCCCC2)cc1.Cl,-2.88%
9,CCOC(=O)c1cc(C)sc1/N=C/C1C(=O)CC(C)(C)CC1=O,5.33%
10,CCOC(=O)N1CCC(Nc2c(NCCCN(C)Cc3ccccc3)c(=O)c2=O)CC1,14.9%
11,COc1cccc(NC(=O)CN(C)CC(=O)Nc2ccc(Cl)cc2[N+](=O)[O-])c1,8.48%
12,Brc1cccc(Cn2c(-c3cncs3)nc3ccccc32)c1,3.49%
13,CCOC(=O)c1ccc(NC(=O)c2cc(S(=O)(=O)N3CCOCC3)ccc2O)cc1,-1.61%
14,CCOC(=O)c1cnc2c(CC)cccc2c1NCCN1CCOCC1,-14.1%
15,Cc1nn(-c2cc(N3CCCCC3)ccc2[N+](=O)[O-])c(=O)c2ccccc12,-7.72%
16,CSc1ccccc1OCc1cc(C(=O)NCCN2CCCC(O)C2)no1 (stereo not shown),-12.6%
17,Cn1cnnc1SCC(=O)NCc1ccccc1,13%
18,C=C(CC)C(=O)c1ccc(OCC(=O)O)c(Cl)c1Cl,10.9%
19,CNC(=O)Cn1nc(-c2ccc(C)c(S(=O)(=O)N(C)C)c2)c2ccccc2c1=O,3.97%
20,Cc1nc(-c2cn[nH]c2-c2ccc(O)cc2O)cs1,7.1%
21,Cc1ccc(OCc2n[nH]c(=S)n2-c2ccc(Br)cc2)cc1,17.9%
22,COc1ccc(/C=C(/NC(=O)c2ccccc2)C(=O)NC(Cc2c[nH]c3ccccc23)C(=O)O)cc1 (stereo not shown),11.7%
